Source: PubChem BioAssay AID720709 (National Center for Advancing Translational Sciences (NCATS), 2013)
Among all 360,000 compounds or so, about 520 (0.14%) were called active. The inconclusive results got no clear call from the source; some entries with a clear call stand among them for comparison. Calls come from the whole dose curve; as a rule, active = well fitted inhibition curve with a large enough effect; inconclusive = small, poorly fitted or top-dose-only effect; inactive = no such curve, though single readings can be large or run the other way. Potencies of inconclusive entries are left out as doubtful fits.
Note: nearly all actives have a fitted effect of over 50% in size.
Potency is the fitted concentration of half-maximal effect; tags give direction and shape of the fitted curve.
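Throughout, for activity change, negative = inhibition: plate controls were vehicle for no effect and positive control for full effect.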

These molecules were tested against Rap guanine nucleotide exchange factor 3 (Homo sapiens) (UniProt O95398) (assay: qHTS for Antagonist of cAMP-regulated guanine nucleotide exchange factor 3 (EPAC1): primary screen). Settings: EPAC1 GEF assay, Rap1b-BODIPY-GDP exchange fluorescence; activity change, negative = inhibition: at 115 µM (top of the series).
Sequence of UniProt O95398 (O95398 whole entry, looked up): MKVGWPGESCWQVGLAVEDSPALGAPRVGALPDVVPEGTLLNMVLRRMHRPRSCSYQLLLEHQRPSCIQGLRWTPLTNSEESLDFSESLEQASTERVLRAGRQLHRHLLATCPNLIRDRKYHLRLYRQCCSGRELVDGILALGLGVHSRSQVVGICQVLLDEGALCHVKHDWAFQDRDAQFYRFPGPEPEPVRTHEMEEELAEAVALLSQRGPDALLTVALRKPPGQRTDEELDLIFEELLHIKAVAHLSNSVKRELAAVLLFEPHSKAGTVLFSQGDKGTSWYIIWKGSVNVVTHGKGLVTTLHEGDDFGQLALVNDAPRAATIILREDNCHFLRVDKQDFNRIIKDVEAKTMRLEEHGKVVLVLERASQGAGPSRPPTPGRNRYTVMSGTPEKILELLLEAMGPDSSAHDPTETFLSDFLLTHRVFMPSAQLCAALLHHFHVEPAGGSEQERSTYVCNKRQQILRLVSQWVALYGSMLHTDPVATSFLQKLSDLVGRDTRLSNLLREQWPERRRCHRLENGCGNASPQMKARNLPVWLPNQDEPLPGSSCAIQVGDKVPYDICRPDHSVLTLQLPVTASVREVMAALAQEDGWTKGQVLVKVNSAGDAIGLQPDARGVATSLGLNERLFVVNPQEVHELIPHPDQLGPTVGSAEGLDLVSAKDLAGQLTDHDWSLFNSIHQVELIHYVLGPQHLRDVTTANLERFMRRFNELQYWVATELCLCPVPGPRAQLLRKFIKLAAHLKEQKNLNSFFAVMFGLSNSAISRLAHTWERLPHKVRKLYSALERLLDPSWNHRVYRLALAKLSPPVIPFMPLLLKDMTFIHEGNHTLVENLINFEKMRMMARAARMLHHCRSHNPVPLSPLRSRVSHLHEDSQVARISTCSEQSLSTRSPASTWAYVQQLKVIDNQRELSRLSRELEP
In the case of `CC(=O)NC(c1ccccc1)c1c(O)ccc2ccccc12` (configuration not stated), the Potency is reported as “inactive”. For `CCCCc1c(O)nc(SC2CC(=O)N(c3ccc(C(=O)OCC)cc3)C2=O)[nH]c1=O` (configuration not stated), the Potency was inconclusive [inhibitor, full curve, poor fit]. For `CC1(C)Cc2c(sc(NC(=O)COc3cccc4ccccc34)c2C#N)C(C)(C)N1`, the Potency was “inactive”. In the case of `NC(=O)Nc1ccc(C(=O)OCC(=O)c2c[nH]c3ccccc23)cc1`, the Potency is reported as inconclusive [inhibitor, single point]. For `NS(=O)(=O)c1ccc(CNC(=O)CCS(=O)(=O)Cc2ccccc2)cc1`, the Potency was “inactive”. For `COc1ccc(-c2cc(-c3nnc(COC(=O)CC4CC5CCC4C5)o3)c3ccccc3n2)cc1OC` (configuration not stated), the Potency was inconclusive [inhibitor, partial curve, poor fit]. In the case of `CCCCN1C(=O)/C(=C/C=C2\Oc3ccccc3N2CC)SC1=S`, the Potency is reported as “inactive”. With `c1ccc(C[C@H]2COc3c4ccccc4nn32)cc1` the Potency was “inactive”. With `COCC1CCCN(Cc2cn[nH]c2-c2cc3ccccc3o2)C1` (configuration not stated) the Potency was inconclusive [inhibitor, single point]. With `O=C(NCc1ccco1)c1ccc(Cl)c(S(=O)(=O)N2CCc3ccccc32)c1` the Potency was inconclusive [inhibitor, full curve, poor fit]. For `COc1ccc2c(C)cc(=O)oc2c1`, the Potency was “inactive”. With `Cc1ccc(NC(=O)OCc2cc(-c3ccccc3)on2)cc1` the Potency was inconclusive [inhibitor, single point]. `CCOC(=O)c1cnc(-n2nc(C)cc2C)nc1NCCc1ccccc1` was tested, and the Potency was “inactive”. `CC(C)C(=O)O/N=C1\CCS(=O)(=O)c2sccc21` was tested, and the Potency was inconclusive [inhibitor, partial curve, poor fit]. `COC(=O)[C@]12CCCCC=C1N(Cc1ccco1)C(=O)[C@H](CC(=O)NCc1cccs1)C2` was tested, and the Potency was inconclusive [inhibitor, single point]. With `O=C1OC(c2ccc(O)cc2)(c2ccc(O)cc2)c2ccccc21` the Potency was “inactive”. For `O=C(NC1CCCC1)C1C(c2ccc(C(F)(F)F)cc2)=Nc2ccccc2N1C(=O)c1cc2ccccc2[nH]1` (configuration not stated), the Potency was “inactive”. In the case of `COc1ccc(NC(=O)c2cc3ccccc3cc2O)cc1`, the Potency is reported as inconclusive [inhibitor, partial curve, poor fit]. `CCOc1ccc(NS(=O)(=O)c2ccc3[nH]c(=O)oc3c2)cc1` was tested, and the Potency was inconclusive [inhibitor, full curve]. In the case of `O=C(Nc1cccnc1)c1cccc(S(=O)(=O)N2CCCC2)c1`, the Potency is reported as inconclusive [inhibitor, partial curve, poor fit]. In the case of `COCCNC(=S)Nc1ccc(Cl)c(Cl)c1`, the Potency is reported as “inactive”. For `[O-][n+]1cccc2c(Br)cc(Br)c(O)c21`, the Potency was “inactive”. With `N#C/C(=C\c1ccc(-c2ccccc2[N+](=O)[O-])o1)C(=O)Nc1nc(-c2cccs2)cs1` the Potency was inconclusive [inhibitor, partial curve, poor fit]. In the case of `COc1ccc(C(=O)NC(=S)Nc2ccc(N3CCCC3)cc2)cc1`, the Potency is reported as “inactive”. With `COc1ccc(OC)c(/C=C2\SC(=S)N(NS(=O)(=O)c3ccccc3)C2=O)c1` the Potency was inconclusive [inhibitor, partial curve]. In the case of `COc1ccc(CN2C(=O)c3cccnc3C2O)cc1` (configuration not stated), the Potency is reported as inconclusive [inhibitor, single point]. In the case of `CC(C)CC(=NNC(=O)c1ccncc1)c1cc(Cl)ccc1O`, the Potency is reported as “inactive”. `Cc1cccc(NC(=S)N(CCN(C)C)C(C)c2cccnc2)c1` (configuration not stated) was tested, and the Potency was inconclusive [inhibitor, full curve, poor fit]. With `COc1ccc(CN2C(=O)c3cccnc3C2Nc2cc(Cl)ccc2OC)cc1` (configuration not stated) the Potency was inconclusive [inhibitor, partial curve]. For `CCC(C)(C)n1nnnc1C(c1cccnc1)N1CCN(c2cccc(C(F)(F)F)c2)CC1` (configuration not stated), the Potency was inconclusive [inhibitor, full curve]. With `COc1ccc(NC(=O)Nc2cccc3c2O[C@H](CN(C)S(=O)(=O)c2ccc(OC)cc2)[C@@H](C)CN([C@H](C)CO)C3=O)cc1` the Potency was inconclusive [inhibitor, single point]. For `CCOc1ccc(-n2cnc3scc(-c4ccc(OC)c(OC)c4)c3c2=O)cc1`, the Potency was “inactive”. In the case of `O=C(CSc1ncccn1)N1CCN(C(c2ccccc2)c2ccccc2)CC1`, the Potency is reported as “inactive”. In the case of `NC(=O)C1CCN(CC(=O)Nc2ccccc2Sc2ccc(Cl)cc2)CC1`, the Potency is reported as “inactive”. In the case of `Cc1ccc(NC(=O)CNS(=O)(=O)c2ccc(F)cc2)cc1C`, the Potency is reported as inconclusive [inhibitor, full curve, poor fit]. `CCn1c(SCCOc2ccc(OC)cc2)nnc1C(CO)NC(=O)c1ccc(OC)cc1` (configuration not stated) was tested, and the Potency was “inactive”. With `CC(=O)c1c(C)[nH]c(C(=O)OCC(=O)c2ccc3c(c2)NC(=O)CO3)c1C` the Potency was inconclusive [inhibitor, partial curve]. For `O=C(Nc1ccc(-c2nc3ccc(NC(=O)c4cccs4)cc3[nH]2)cc1)c1cccs1`, the Potency was inconclusive [inhibitor, partial curve]. `O=C(Nc1nnc(-c2cccs2)o1)c1cccc(F)c1` was tested, and the Potency was inconclusive [inhibitor, full curve, poor fit]. `O=C(c1ccc(-n2cccn2)cc1)N1CCc2c([nH]c3ccccc23)C1c1ccccn1` (configuration not stated) was tested, and the Potency was inconclusive [inhibitor, full curve, poor fit]. In the case of `C=CCn1c(SCC(=O)NCCOC)nc2scc(-c3ccco3)c2c1=O`, the Potency is reported as inconclusive [inhibitor, single point]. For `Cc1ccc(C2(c3noc(CN(C)Cc4cnn(C)c4)n3)CCCC2)cc1`, the Potency was inconclusive [inhibitor, full curve]. For `CCOC(=O)c1sc(Nc2nc3c(OC)cccc3s2)cc1C`, the Potency was inconclusive [inhibitor, full curve, poor fit]. `Cc1ccc(Cn2c(CCNc3nc(-c4ccc(C)cc4)cs3)nc3cc(C(=O)NCCCO)ccc32)cc1` was tested, and the Potency was inconclusive [inhibitor, partial curve]. `Cc1ccc([N+](=O)[O-])cc1S(=O)(=O)Nc1cccc(-c2ccc(N3CCOCC3)nn2)c1` was tested, and the Potency was inconclusive [inhibitor, single point]. With `O=C1c2ccccc2C(=O)C12OC2c1cccc2ccccc12` (configuration not stated) the Potency was inconclusive [inhibitor, partial curve]. In the case of `CCOC(=O)C1CCCCN1S(=O)(=O)c1ccc2c(c1)CC(C)N2C(=O)C1CCC1` (configuration not stated), the Potency is reported as “inactive”. `C/C(=N\NC(=S)NC(C)C)c1ccc(C(C)(C)C)cc1` was tested, and the Potency was inconclusive [inhibitor, single point]. In the case of `C/C(=N/Nc1ccc(C(=O)O)cc1)c1ccc(O)c(O)c1O`, the Potency is reported as “inactive”. In the case of `N#CCc1ccc(OC(=O)c2cccnc2Cl)cc1`, the activity change, negative = inhibition is reported as inconclusive: -17.7% [inhibitor]. `CCOC(=O)C(Cc1nc(OCc2ccccc2)cc(OCc2ccccc2)n1)=NO` was tested, and the Potency was “inactive”. `C[C@@H]1CCC[C@]2(O[C@H](CCO)C[C@H](O)[C@H]2O)O1` was tested, and the Potency was inconclusive [inhibitor, single point]. In the case of `O=C(c1ccccc1)n1ccc(-c2cnc(-c3ccccc3)s2)n1`, the Potency is reported as inconclusive [inhibitor, single point]. `c1cnc(SCCCOc2ccc3ccccc3c2)nc1` was tested, and the Potency was inconclusive [inhibitor, partial curve]. For `COc1ccc(CCN2C(=O)C(Oc3ccccc3C)C2c2ccc3c(c2)OCO3)cc1OC` (configuration not stated), the Potency was inconclusive [inhibitor, single point]. With `Cc1ccc(C)c(-c2ccc(=O)n(Cc3cccc(Br)c3)n2)c1` the Potency was inconclusive [inhibitor, partial curve, poor fit]. For `Nc1ncnc2c1ncn2[C@@H]1O[C@H](CN2CCCS2(=O)=O)[C@@H](O)[C@H]1O`, the Potency was inconclusive [inhibitor, single point]. `O=C(CSc1nnc(CN2CCOCC2)n1-c1ccccc1)N1CCc2ccccc21` was tested, and the Potency was “inactive”. In the case of `O=C(c1ccc(C(F)(F)F)cc1)N1CCC(=O)N(C(COCc2ccc(Cl)cc2)Cc2ccccc2)CC1` (configuration not stated), the Potency is reported as inconclusive [inhibitor, full curve, poor fit]. In the case of `CN(C)c1ccc(/C=C/c2ccc3ccccc3[n+]2C)cc1`, the Potency is reported as “inactive”. With `COc1ccccc1N(CC(=O)N/N=C/c1ccccc1C(=O)O)S(C)(=O)=O` the Potency was inconclusive [inhibitor, partial curve, poor fit]. In the case of `Cc1cccc(C(=O)N=c2c(C#N)cc3c(=O)n4cccc(C)c4nc3n2Cc2ccco2)c1`, the Potency is reported as active: 50.1 µM. In the case of `COc1ccc(NC(=S)NCc2ccc3c(c2)cc(C)n3C)cc1`, the Potency is reported as inconclusive [inhibitor, full curve, poor fit]. With `COc1ccc(NC(=O)CC2C(=O)N(c3ccc(Cl)cc3)C(=S)N2CCc2ccccn2)cc1` (configuration not stated) the Potency was inconclusive [inhibitor, full curve, poor fit]. `CCOC(=O)N1CCN(S(=O)(=O)c2ccc3c(c2)CC(C)N3C(C)=O)CC1` (configuration not stated) was tested, and the Potency was inconclusive [inhibitor, partial curve]. In the case of `COc1cccc2c1OC1(C)CC2/C(=C(\C)O)C(=O)N1` (configuration not stated), the Potency is reported as inconclusive [inhibitor, single point]. In the case of `COc1ccc(N=C2SCC(=O)N2c2ccc(OC)cc2)cc1`, the Potency is reported as inconclusive [inhibitor, single point].
